In PubChem BioAssay AID485344 (National Center for Advancing Translational Sciences (NCATS), 2010):
The whole screen tested about 340,000 compounds, of which about 6,900 (2%) were called active. Cut-off read from the data, not from the text of the source: active = inhibition above about 30%; inactive = below that, where a call was filed. This is a selection; strong and weak results do not stand in their true shares. Where no call is shown, the source filed none.

These molecules were tested against D(2) dopamine receptor (Homo sapiens) (UniProt P14416) (assay: HTS Assay for Allosteric Antagonists of the Human D2 Dopamine Receptor: Primary Screen for Antagonists). Details: HEK293 TREx D2 cells, calcium flux, dopamine EC80; at 10 µM; stronger effect = higher value.
Outline: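 Antagonism is scored as inhibition of an EC80 dopamine-evoked calcium signal in a force-coupled, tetracycline-inducible HEK293 T-REx D2 line, with compound present 180 s before agonist.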
Note: 0% is about no effect.

UniProt P14416, sequence (P14416 whole entry, looked up): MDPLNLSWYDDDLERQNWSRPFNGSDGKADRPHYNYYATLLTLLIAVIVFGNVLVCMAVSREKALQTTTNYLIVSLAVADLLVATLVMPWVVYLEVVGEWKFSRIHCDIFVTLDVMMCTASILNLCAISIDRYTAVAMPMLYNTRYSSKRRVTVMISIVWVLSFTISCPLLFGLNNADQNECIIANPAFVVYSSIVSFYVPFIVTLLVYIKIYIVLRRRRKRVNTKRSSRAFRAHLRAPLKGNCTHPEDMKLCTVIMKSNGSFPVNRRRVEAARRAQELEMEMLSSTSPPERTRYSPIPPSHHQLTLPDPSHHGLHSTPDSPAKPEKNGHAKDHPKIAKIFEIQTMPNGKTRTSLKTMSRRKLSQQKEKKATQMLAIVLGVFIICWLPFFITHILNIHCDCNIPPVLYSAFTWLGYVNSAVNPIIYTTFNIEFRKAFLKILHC

SMILES	inhibition
CCCNC(=O)Cn1ncc2c3ccccc3n(CCC)c2c1=O	-2.17%
CC1=C(C(N)=O)C(c2cccnc2)n2nc(SCc3ccccc3Cl)nc2N1 (stereo not given)	active: 34.6%
COc1ccc(S(=O)(=O)N2CCN(Cc3ccc4c(c3)OCO4)CC2)c2ccccc12	active: 31.3%
CCc1cccc(NC(=O)CSc2n[nH]c(-c3ccccc3Cl)n2)c1	9.56%
O=C(Nc1ccc2nc(SCCOc3ccccc3Cl)sc2c1)c1ccco1	-27.9%
Cc1nnc(N2CCN(c3cccc(Cl)c3)CC2)c2c1nnn2Cc1ccc(F)cc1	5.87%
COc1ccc(C)cc1NC(=O)c1c(C(=O)Nc2cccc(C)c2C)sc2nc(C)cc(=O)n12	-5.4%
COc1cccc(-c2nn(C)c3sc(C(=O)NCCc4cccc(C)c4)cc23)c1	-8.25%
COc1ccc(CN2CCC(N(CCc3ccccc3)Cc3ccccc3)CC2)c(OC)c1	active: 34.9%
O=C(Cn1cc2c(n1)CCCC2)Nc1cc(C(F)(F)F)ccc1Cl	-5.73%
CCCn1cc(S(=O)(=O)c2ccccc2)c(=O)c2cc(F)c(N3CCCCCC3)cc21	5.29%
Cc1nc(SCc2ccccc2Cl)c(C#N)c(C)c1C	-21.1%
Cc1cc(C)cc(NC(=O)c2sc3nc4n(c(=O)c3c2C)N=C(c2ccc(F)cc2)CS4)c1	10.6%
Cc1ccc2c(c1)C(c1ccccc1)N(C(=O)c1ccc(S(=O)(=O)N3CCCC3)cc1)CC(=O)N2 (stereo not given)	-2.77%
Cn1c(=O)c2nc3ccc(NC(=O)C(F)(F)F)cc3nc2n(C)c1=O	-18.3%
COc1ccc2sc(N(Cc3cccnc3)C(=O)c3cccs3)nc2c1	4.71%
Cc1ccc(NC(=O)CN2C(=O)CSc3ccc(S(=O)(=O)N(C)C)cc32)c(C)c1	9.94%
COc1ccc2sc(N(Cc3cccnc3)C(=O)C3COc4ccccc4O3)nc2c1 (stereo not given)	14.2%
O=S(=O)(c1ccccc1)c1nnn2c1nc(N1CCN(c3ccccc3)CC1)c1cc(Cl)ccc12	0.378%
CCOC(=O)/C(C#N)=C/c1ccc(-c2ccccc2)o1	-11.5%
Cc1ccc(-n2ncc3c(NC4CCCC4)ncnc32)cc1	26.8%
O=C(CN1CCc2ccccc2C1)Nc1ccc(Br)cc1	active: 58.4%
CCC(Cc1ccccc1)NC(=O)CCS(=O)(=O)c1cc2c(cc1Cl)NC(=O)CO2 (stereo not given)	-2.33%
COc1ccc(NC(=O)C2CCCN(c3cnccn3)C2)c(OC)c1 (stereo not given)	10.3%

SMILES	inhibition
CCOc1ccc(CNC(=O)Nc2ccc3c(c2)N(C)C(=O)c2ccccc2S3)cc1	16.1%
Cc1ccc(NC(=O)CSc2cn(CC(=O)N3CCOCC3)c3ccccc23)cc1Cl	1.88%
CCC(C)n1c(=N)c(C(=O)NC2CCCC2)cc2c(=O)n3ccccc3nc21 (stereo not given)	-2.4%
COc1ccc(NC(=O)Cn2c(SCc3ccc(F)cc3)nc3cccnc32)c(OC)c1	-11.8%
COc1cccc(N2CCN(C(=O)c3cc4c(=O)n(Cc5cccnc5)ccc4nc3C)CC2)c1	3.51%
C=CCc1cc(Cl)ccc1OCCNCCCOC	active: 37.1%
CCOc1ccc(C(=O)Nc2nc(-c3ccc(Br)cc3)ns2)cc1	17%
CC1CCn2c(nc3cc(C(=O)NCCc4ccccc4)ccc32)C1 (stereo not given)	-3.09%
COC(=O)c1ccccc1NC(=O)CCC(=O)N1CC(C)Sc2ccccc21 (stereo not given)	9.33%
COC(=O)C(NC(=O)CCc1c(C)nc2cc(-c3cccc(F)c3)nn2c1C)C(C)C (stereo not given)	3.06%
Cc1ccc2c(=O)cc(C(=O)Nc3ccc(S(=O)(=O)N4CCCCC4)cc3)oc2c1	6.89%
Cc1cc(C)cc(NC(=O)NCC(O)COc2ccc([N+](=O)[O-])cc2)c1 (stereo not given)	active: 38.2%
CCCSc1oc(-c2ccco2)nc1S(=O)(=O)c1ccc(Cl)cc1	-0.311%
CC1(C)CC(=O)C(C(C2=C(O)CC(C)(C)CC2=O)c2ccc([N+](=O)[O-])cc2)C(=O)C1 (stereo not given)	active: 33.1%
COc1ccc(CC(=O)Nc2sc3c(c2C(=O)Nc2cccc(C)c2)CCCCC3)cc1	10%
COc1ccccc1N1CCN(C(c2ccc(Cl)cc2)c2nnc(-c3cccc(F)c3)o2)CC1 (stereo not given)	-8.75%
O=C(NCCN1CCN(c2ccccc2)CC1)Nc1ccc(Cl)cc1	active: 82.2%
O=C(Nc1ccc(Cl)c(-c2nc3ccccc3o2)c1)c1ccc(-c2cccc([N+](=O)[O-])c2)o1	9.84%
Cc1ccc(Cl)cc1Nc1sc(C(=O)c2ccc(F)cc2)c(N)c1S(C)(=O)=O	-14.1%
O=C(CSc1nc(=O)n(Cc2ccco2)c2c1CCC2)Nc1cccc(F)c1	-4.87%
CCOc1ccc(CNCCCSc2nnnn2C)cc1OC	-4.26%
COc1cccc(CNC(=O)Cc2csc3nc(-c4ccccc4)cn23)c1	-7.54%
COc1ccc(C(=O)/C=C/Nc2ccc(S(=O)(=O)Nc3cc(OC)nc(OC)n3)cc2)c(OC)c1	active: 31%
Cc1cc(=O)n2c(C(=O)Nc3ccc(Br)cc3)c(C(=O)Nc3ccccc3)sc2n1	-1.55%

SMILES	inhibition
CCCCOC(=O)c1ccc(OC(=O)c2sc3ncn(Cc4ccccc4Cl)c(=O)c3c2C)cc1	-10.5%
COc1ccccc1OCc1nnc(-c2ccccc2)o1	-2.32%
CCOc1ccccc1NC(=O)Cn1c(=O)n(Cc2ccccc2)c(=O)c2c1c1cc(C)ccc1n2C	3.59%
COc1ccc(CCNC(=O)c2ccc3c(c2)CCN3S(=O)(=O)c2ccccc2)cc1OC	6.05%
COc1ccccc1Nc1c2c(nc3ccc(NC(=O)c4ccc(OC)c(OC)c4)cc13)CCCC2	-3.88%
Cc1ccc(-n2ncc(C(=O)NCc3ccccc3)c2C2CCN(C(=O)OC(C)(C)C)CC2)cc1	3.73%
Cc1cc(Nc2cccc(Cl)c2)nc2ccc(NC(=O)Cc3ccc(Cl)cc3)cc12	-11.5%
COc1cc(N2C(=O)CSC23C(=O)N(Cc2cccc(F)c2)c2ccccc23)cc(OC)c1OC (stereo not given)	0.667%
CCOC(=O)Cn1c(=O)n(CC2CCCO2)c2nc(-c3ccc(OCC)cc3)nc(C(N)=O)c21 (stereo not given)	-2.39%
CCN(CC)CCNC(=O)CN1C(=O)COc2ccc(S(=O)(=O)N3CCOCC3)cc21	-13%
COc1cc(NC(=O)c2nn(C)c3c2CS(=O)(=O)c2ccccc2-3)cc(OC)c1	-1.28%
O=C(Nc1ccc2nc3n(c(=O)c2c1)CCCCC3)C(=O)Nc1ccccc1F	2.02%
CCc1ccc(Cn2c(CNS(=O)(=O)c3ccc([N+](=O)[O-])cc3)nc3cccnc32)cc1	-13.4%
Cc1cccc(Nc2nn3c(=O)c4cc5c(cc4nc3s2)OCO5)c1	1.26%
Cc1ccc(C(=O)NCc2ccc3c(c2)CCN3C(=O)c2ccc(C)cc2)cc1	-24.2%
COCCNC(=O)c1ccc(-n2c(-c3ccccc3)cc3c2CCC(C)C3)cc1 (stereo not given)	-5.07%
CCn1nc(C)c(CCN(C)C(=O)Nc2ccc(C)c(Cl)c2)c1C	4.01%
CCCN1CCN(CCCNC(=O)c2cc3c(=O)[nH]c4ccc(C)cc4c3s2)CC1	active: 42.6%
CCOC(=O)c1cc(-c2ccc(OC)c(S(=O)(=O)NC3CCCCC3)c2)on1	-1.68%
CCC(C)(C)NC(=O)CN(Cc1ccc2c(c1)OCO2)C(=O)CCC(=O)Nc1cc(C)ccn1	active: 42.2%
CCN(C(=O)Cn1nc(Cc2ccncc2)c2ccccc2c1=O)c1cccc(Cl)c1	-1.34%
COc1ccc(CCNC(=O)CN2C(=O)COc3ccc(C)cc32)cc1OC	7.46%
COc1ccccc1N(CC(=O)N1CCC(C)CC1)S(=O)(=O)c1ccc(C)cc1	15.8%
CC(C)c1ccc(S(=O)(=O)N2CCC(N3CCN(Cc4ccccc4)C(=O)C3=O)CC2)cc1	0.699%

SMILES	inhibition
CCc1cccc(NC(=O)CN(C)S(=O)(=O)c2ccc3c(c2)CCCN3C(C)=O)c1	4.66%
COc1ccccc1-c1noc(-c2ccc(NCC3CCCO3)c([N+](=O)[O-])c2)n1 (stereo not given)	20.2%
Cc1cc(C)c(S(=O)(=O)NCC(c2ccc(N(C)C)cc2)N2CCOCC2)c(C)c1 (stereo not given)	-3.77%
Cc1ccc2oc(=O)n(CCCOc3ccccc3Cl)c2c1	6.02%
CC(CCc1ccccc1)NC(=O)Cn1c(=O)nc(-c2ccccc2)c2ccccc21 (stereo not given)	6.08%
Cc1ccccc1Nc1c(-c2cccnc2)nc2ccc(Cl)cn12	3.69%
CCc1nn2c(=O)c(S(=O)(=O)Nc3ccc(Cl)cc3)c(C)nc2s1	-14.3%
COc1ccc(C2=C(Nc3ccc(C)cc3C)c3ccccc3C2=O)cc1	-2.08%
CCOc1ccc(CNCc2c(C(=O)O)c(C)n(Cc3c(F)cccc3Cl)c2C)cc1OC	-1.95%
C=CCn1c(COc2ccc(F)cc2)nnc1SC(C)C(=O)NCC1CCCO1 (stereo not given)	active: 61.3%
Cc1ccc(-c2cn3c(n2)sc2cc(C(=O)NCCCc4ccccc4)ccc23)c(C)c1	2.67%
CCCCN(CCCNC(=O)c1cc(Nc2ccc(OC)c(OC)c2)nc2ccccc12)c1ccccc1	10.7%
CC1CCCN(S(=O)(=O)c2ccc3c(c2)c(=O)nc2ccccn23)C1 (stereo not given)	7.54%
COc1ccccc1NC(=O)C1=C(C)Nc2nc3ccccc3n2C1c1cccc(OC)c1OC (stereo not given)	4.04%
Cc1ccn2c(=O)cc(COc3cccc(NC(=O)Nc4cccc(Cl)c4C)c3)nc2c1	-13.5%
Cc1ccc(CNC(=O)c2ccc(CS(=O)Cc3cccc(Cl)c3)o2)cc1 (stereo not given)	0.31%
COc1ccc(-c2cc(C(F)(F)F)nc(SCC(=O)NCC(C)C)n2)cc1OC	3.72%
COc1cc(C(C)=O)ccc1OCC(O)CN1CCN(c2ccccn2)CC1 (stereo not given)	active: 93.3%
Cc1cc(Nc2cccc(C(F)(F)F)c2)nc2ccc(NC(=O)c3cccc(Cl)c3)cc12	8.33%
COc1ccc(NC(C)=O)cc1NC(=O)CN1CCN(c2ccc(F)cc2)CC1	9.5%
O=S(=O)(c1cccc2ccccc12)N1CCN(c2ccc(Cl)c(Cl)c2)CC1	10.1%
O=C(CSc1nc(-c2ccc(F)cc2)[nH]c1-c1ccc(F)cc1)Nc1ccc2c(c1)OCO2	-22.9%
O=C(Cc1ccc(-c2ccccc2)cc1)NCCS(=O)(=O)N1CCN(c2ccccc2)CC1	-12%
